Measurements from publication PMC5550695.
No constants are given. Whether binding was seen depends on the method and setting. In cells and extracts the contact can be indirect. Some entries that bind do so weakly or less than the wild type. Where a sequence is shown, tags or fusion partners need not be part of it.

Target: T1, Arabidopsis MKKK20, split-YFP fusion for BiFC (Arabidopsis thaliana) (UniProt Q9SND6)
T1 sequence: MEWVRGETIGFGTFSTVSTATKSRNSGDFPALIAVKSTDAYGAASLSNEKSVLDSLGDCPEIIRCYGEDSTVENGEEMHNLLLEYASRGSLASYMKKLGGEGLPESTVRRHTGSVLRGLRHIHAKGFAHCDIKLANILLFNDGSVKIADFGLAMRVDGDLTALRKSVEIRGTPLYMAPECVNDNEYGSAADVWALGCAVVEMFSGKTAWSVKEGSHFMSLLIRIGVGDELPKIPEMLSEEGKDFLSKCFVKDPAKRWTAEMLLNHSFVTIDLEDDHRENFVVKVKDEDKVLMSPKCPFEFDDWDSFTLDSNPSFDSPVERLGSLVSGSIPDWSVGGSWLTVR
Test: split reporter; BiFC with split YFP (pUC-SPYCE / pUC-SPYNE) in onion epidermal cells, transient transformation by microparticle bombardment, fluorescence microscopy

- binding: binds
B1: Arabidopsis MPK18, split-YFP fusion for BiFC (enzyme, UniProt Q9C5C0 1-615)
chain: MQQNQVKKGTKEMEFFTEYGDANRYRILEVIGKGSYGVVCAAIDTHTGEKVAIKKINDVFEHISDALRILREVKLLRLLRHPDIVEIKSIMLPPSKREFKDIYVVFELMESDLHQVIKANDDLTREHHQFFLYQMLRALKFMHTANVYHRDLKPKNILANANCKLKVCDFGLARVAFNDTPTTVFWTDYVATRWYRAPELCGSFFSKYTPAIDVWSIGCIFAEVLTGKPLFPGKSVVHQLELITDLLGTPKSETISGVRNDKARKYLTEMRKKNPVTFSQKFSKADPLALRLLQRLLAFDPKDRPTPAEALADPYFKGLSKIEREPSSQQISKMEFEFERRRLTKDDIRELIYREILEYHPQLLKDYMSGSEGSNFVYPSAIGHLRQQFTYLEENSSRNGPVIPLERKHASLPRSTVHSTVVHSTSQPNLGATDSRRVSFEPSKNGASSAGHPSTSAYPTKSIGPPPRVPPSGRPGRVVESSVSYENGRNLKEAYFRSAVSSPHCYFRPNTMTNPENRNIEASSFPPKPQNPVHQFSPTEPPAATTNQADVETMNHPNPYFQPQLPKTDQLNNNTHMAIDAKLLQAQSQFGPAGAAAVAVAAHRNIGTISYSAAS
